Experimental data as given in the antibiotic and cytotoxicity screens of Wong et al. (2023).
Some of the results follow.

Experiments:
HSkMC = human skeletal muscle cells; test: cytotoxicity call (relative viability < 0.9); settings: 10 µM
HepG2 = test: cytotoxicity call (relative viability < 0.9); settings: 10 µM
S. aureus RN4220 = test: growth inhibition call (relative growth <= 0.2); settings: 50 µM

SMILES	cytotoxicity call (HSkMC)	cytotoxicity call (HepG2)	growth inhibition call (S. aureus RN4220)
CCCC(=O)Nc1ccc2c(c1)C(=O)N(C)[C@@H]1CC[C@@H](CC(=O)NCCN3CCCCC3)O[C@H]1CO2	inactive	inactive	inactive
CC(C)[C@H]1COC(=O)N1	inactive	inactive	inactive
C[C@H](CO)N1C[C@H](C)[C@H](CN(C)C(=O)Nc2ccccc2)Oc2ccc(NC(=O)CCCCCC(=O)Nc3ccccc3N)cc2CC1=O	inactive	inactive	inactive
CC(C)NC(=O)N(C)C[C@H]1Oc2ccc(NS(=O)(=O)c3cn(C)cn3)cc2C(=O)N([C@H](C)CO)C[C@@H]1C	inactive	inactive	inactive
COc1ccccc1OC[C@@H](O)COC(N)=O	inactive	inactive	inactive
CC(=O)N[C@H]1C(=O)SC1(C)C	inactive	inactive	inactive
CC(C)NC(=O)Nc1ccc2c(c1)C(=O)N([C@H](C)CO)C[C@@H](C)[C@H](CN(C)S(C)(=O)=O)OCCCC[C@@H](C)O2	inactive	inactive	inactive
C[C@@H]1CN([C@@H](C)CO)C(=O)c2cc(C#Cc3ccc(F)cc3)cnc2O[C@@H]1CN(C)CC1CCOCC1	inactive	inactive	inactive
Cc1cc(C(=O)Nc2cccc3c2O[C@H](CN(C)S(=O)(=O)c2ccc(F)cc2)[C@H](C)CN([C@H](C)CO)C3=O)n(C)n1	inactive	inactive	inactive
C[C@@H]1CN([C@H](C)CO)C(=O)c2cc(NC(=O)Nc3ccccc3)ccc2O[C@@H](C)CCCCO[C@@H]1CN(C)CC1CCCCC1	inactive	inactive	inactive
CC(C)NC(=O)N(C)C[C@@H]1Oc2ccc(NC(=O)CCC(F)(F)F)cc2CC(=O)N([C@H](C)CO)C[C@@H]1C	inactive	inactive	inactive
C[C@H]1CN([C@@H](C)CO)C(=O)c2cccc(NC(=O)CCCCCC(=O)Nc3ccccc3N)c2O[C@H]1CN(C)Cc1ccc(Cl)c(Cl)c1	active	inactive	inactive
